PubChem BioAssay AID1347073 (National Center for Advancing Translational Sciences (NCATS), 2019)
Several values for one entry are separate records, joined by “and”; a condition that tells them apart may be missing. Equal entries are not always repeated. Screen size: about 45,000 compounds; about 200 (0.44%) were called active. Not shown: some 7% with an inconclusive outcome. Calls come from the whole dose curve; as a rule, active = well fitted activation curve with a large enough effect; inconclusive = small, poorly fitted or top-dose-only effect; inactive = no such curve, though single readings can be large or run the other way. Some of the results follow.

Assay: qHTS of TDP-43 Inhibitors: NCGC Sytravon Library Screen; note: 0% is about no effect; nearly all actives have a fitted effect of over 55% in size
Settings: yeast TDP-43 toxicity rescue, BacTiter-Glo growth, 24 h; at 46.1 µM (top of the series)
Procedure, shortened: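 TDP-43-expressing yeast, pregrown in raffinose, seeded at OD600 0.02 in galactose medium with compound for 24 hr at 30 deg C. Growth read by BacTiter-Glo luminescence, so rescue of toxicity appears as activation.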

SMILES	growth rescue (activation)
O=C(Nc1ccc(Br)cc1C(=O)c1ccccc1Cl)c1ccccc1F	inactive: -4.09%
C/C(=N\NP(=S)(c1ccccc1)c1ccccc1)c1ccc(O)cc1O	inactive: 8.57%
O=Cc1c(C(=O)O)n(Cc2ccccc2F)c2ccccc12	inactive: 0.0297%
CCCn1cc(C(=O)O)cn1	inactive: -23.5%
Cc1c2cnn(CC(=O)N3CCC4(CC3)OCCO4)c(=O)c2c(C)n1Cc1ccccc1	inactive: 12.3%
COc1ccc(CCn2c(O)c(C=Nc3ccccc3F)c(=O)[nH]c2=O)cc1OC	inactive: 6.67%
O=C(O)C1C2c3ccccc3C(c3ccccc32)C1C(=O)Nc1ccccc1 (centres undefined)	inactive: 5.61%
CCOC(=O)CSCCOc1ccc(C=C2C(=O)NC(=O)NC2=O)cc1OC	inactive: 10.8%
CC1CN=C(NCc2ccncc2)S1 (centres undefined)	inactive: -10.6%
COc1ccc(C(=O)C2CCCN(Cc3ccon3)C2)c(OC)c1 (centres undefined)	inactive: -6.86%
O=c1[nH]c(O)c(C=NC2CCCCC2)c(=O)[nH]1	inactive: -6.75%
Cc1ccccc1CN1CCCN(Cc2ccc(Cl)cc2)S1(=O)=O	inactive: 5.52%
CCCC[N+]12CCC(CC1)C(C(O)(c1ccccc1)c1ccccc1)C2 (centres undefined)	inactive: 8.22%
O=c1c2ccccc2nc(/C=C/c2ccccc2O)n1-c1ccc(Br)cc1	inactive: -1.59%
N=C1c2ccccc2CN1NC(=O)c1ccco1	inactive: 14.1%
COc1cc(/C=C(/C)[N+](=O)[O-])ccc1OCc1ccccc1Cl	inactive: 29.2%
O=C(Cc1ccccc1[N+](=O)[O-])N1CCN(Cc2ccc3c(c2)OCO3)CC1	inactive: -0.633%
Clc1ccccc1C1NCc2ccccc2-n2cccc21 (centres undefined)	inactive: 8.57%
CSc1ccc(CNC(C)C(O)c2ccccc2)cc1 (centres undefined)	inactive: 4.45%
O=[N+]([O-])c1ccc(N2CCNCC2)cc1Sc1ccccn1	inactive: 3.46%
CC(C)N1CCN(Cc2cc3c(cc2Cl)OCO3)CC1CCO (centres undefined)	inactive: -1.83%
C[C@]12CCC3C(CC[C@H]4C[C@H](O)CC[C@]34C)C1C[C@@H](O)[C@@H]2O (some centres undefined)	inactive: -7.18%

SMILES	growth rescue (activation)
O=C1CSC2(CN3CCC2CC3)N1 (centres undefined)	inactive: 22.4%
Cn1c(C(=O)O)c(CC(=O)N2CCN(Cc3ccccc3)CC2)c2ccccc21	inactive: 17.6%
CN1c2ccc([N+](=O)[O-])cc2CC2(C(=O)NC(=O)N(c3ccc(Br)cc3)C2=O)C1c1ccccc1 (centres undefined)	inactive: -3.88%
N=C1c2ccccc2CN1CC(=O)c1ccccc1	inactive: -14.9%
COc1cc2c(C(=O)N3CCN(C)CC3)c(C)n(C)c2cc1Br	inactive: -4.8%
CC(=O)N1CC(=O)Nc2ccc(Cl)cc2C1c1ccccc1 (centres undefined)	inactive: -2.01%
Cc1cc(Br)c(NC(=O)CN2CC=C(c3ccccc3)CC2)c(Br)c1	inactive: 13.2%
Cc1ccc(NC(=S)NCCc2cnc[nH]2)cc1C	inactive: -5.36%
Cc1c2cnn(CC(=O)N3CCC4(CC3)OCCO4)c(=O)c2c(C)n1Cc1ccccc1F	inactive: -4.17%
O=C1CN(C(=O)COC(=O)Cc2ccccc2)c2ccccc2N1	inactive: 5.46%
C#C[C@]1(O)CCC2C3C(=O)C=C4C(Cl)=CCC[C@]4(C)C3CC[C@@]21C (some centres undefined)	inactive: 1.35%
O=C(NC1CCCCC1)Oc1cc2oc(=O)sc2cc1Cl	inactive: -56.9%
CCn1ccnc1CN1CCCC(C(=O)c2ccc(OC)cc2OC)C1 (centres undefined)	inactive: 3.58%
C[C@]12CC[C@H](O)CC1=C([N+](=O)[O-])CC1C2CC[C@@]2(C)C1CC[C@@H]2O (some centres undefined)	inactive: -5.61%
CN(C)c1ccc(/C=C2/C(=N\O)C3CCN2CC3)cc1	inactive: 0.153%
O=C1NC(=O)N(c2ccc(F)cc2)C(=O)/C1=C/c1ccsc1	inactive: 15.8%
Cc1ccccc1-n1c(/C=C/c2ccc(O)cc2)nc2ccccc2c1=O	inactive: 17.3%
O=C(O)c1ccc(/C=C/c2nc3ccccc3c(=O)n2-c2ccc(Br)cc2)cc1	inactive: 0.26%
c1cncc(CNC2CCCC2)c1	inactive: -6.11%
Oc1ccc(C[C@H]2NCCc3cc(O)c(O)cc32)cc1O	inactive: 5.05%
C[C@]12CCC3C(CC[C@H]4[C@H](O)[C@H](O)CC[C@]34C)C1CCC2=O (some centres undefined)	inactive: 18.6%
C[C@]12CCC3C(CC[C@H]4C[C@H](O)CC[C@]34C)C1CC(=O)[C@@H]2O (some centres undefined)	inactive: 35%

SMILES	growth rescue (activation)
O=C(Nc1ccccc1)c1c(O)c2c(n(Cc3ccco3)c1=O)CCCC2	inactive: -18.1%
Cc1ccc(OCC(=O)N2CCN(Cc3ccc4c(c3)OCO4)CC2)cc1C	inactive: -4.53%
CC1=C[C@@H]2c3cccc4[nH]cc(c34)C[C@H]2N(C)C1	inactive: -1.2%
Cc1ccc2c(c1)C1CN(C)CCC1N2C(=O)CCCN1C(=O)c2cccc3cccc(c23)C1=O (centres undefined)	inactive: 4.65%
N=c1sccn1Cc1ccccc1F	inactive: -3.23%
CN(C)c1ccc(/C=C/c2cc[n+](C)c3ccccc23)cc1	inactive: -27.9%
O=c1[nH]c(=O)n(-c2cccc(Cl)c2)c(O)c1C=NCCCN1CCOCC1	inactive: 11.9%
O=C(c1c[nH]c2ccc(S(=O)(=O)N3CCOCC3)cc2c1=O)N1CCC2(CC1)OCCO2	inactive: 6.63%
CCOP(=O)(OCC)C(NC(=O)c1ccc(OC)cc1)C(Cl)(Cl)Cl (centres undefined)	inactive: -0.704%
COCc1ccc(CN2CCCC(C(=O)c3sccc3C)C2)o1 (centres undefined)	inactive: 0.892%
CC[n+]1c(SC)ccc2cc(OC)ccc21	inactive: -8.14%
COCCCn1c(N)c(C(=O)Nc2ccccc2)c2nc3ccccc3nc21	inactive: 8.08%
O=c1cccc2n1CC1CC2CN(S(=O)(=O)c2cc(Cl)ccc2Cl)C1 (centres undefined)	inactive: 9.03%
C=CCn1c(O)c(C(C)=NCCCn2ccnc2)c(=O)[nH]c1=O	inactive: 5.99%
O=C(CCC(=O)N1CCC2(CC1)OCCO2)Nc1nnc(C2CCCCC2)s1	inactive: 11.5%
CCCCn1c(O)c(C=NCCCN(CC)CC)c(=O)[nH]c1=O	inactive: 8.07%
COc1ccc(CC2C(=O)N(C)C(=O)N(C)C2=O)c(OC)c1	inactive: -14.8%
CC12CN3CCN(CC(C3)/C1=N/NC(N)=O)C2	inactive: 5.2%
CN1CCN(CC(=O)Nc2ccc([N+](=O)[O-])cc2C(=O)c2ccccc2)CC1	inactive: 5.75%
CN(CCc1ccccc1)Cc1ccccc1[N+](=O)[O-]	inactive: 20.7%
Cc1ccc(-n2c(/C=C/c3cccs3)nc3ccccc3c2=O)cc1C	inactive: 2.36%
OCCN(CC#CC(O)(c1ccccc1)C1CCCC1)CCO (centres undefined)	inactive: 1.6%

SMILES	growth rescue (activation)
Nc1ccc2nonc2c1[N+](=O)[O-]	inactive: 3.6%
O=C(N/N=C/c1c(O)n(CCC2=CCCCC2)c(=O)[nH]c1=O)c1ccccc1	inactive: 6.29%
COc1ccc(-n2c(O)c(C=NCc3ccc4c(c3)OCO4)c(=O)[nH]c2=O)cc1	inactive: 10.7%
CC(=NCC1CCCO1)c1c(O)n(-c2ccccc2)c(=O)[nH]c1=O (centres undefined)	inactive: -12%
C/C(=N\Nc1ccccc1)c1c(O)n(Cc2ccccc2)c(=O)[nH]c1=O	inactive: -7.1%
CCCC(=O)NC(Oc1ccc(OC)cc1)C(Cl)(Cl)Cl (centres undefined)	inactive: 4.62%
C[C@]12CCC3C(CC[C@H]4C[C@H](O)CC[C@]34C)C1[C@@H](O)C[C@@H]2O (some centres undefined)	inactive: 3.03%
c1ccc(-c2cc(-c3ccccc3)[n+](-c3ccccc3)c(-c3ccccc3)c2)cc1	inactive: -23.9%
CSc1ccc(CN2CCN(C(=O)COc3ccc(C)cc3)CC2)cc1	inactive: 6.3% and inactive: -24.6%
O=C1/C(=C/c2ccncc2)N2CCC1CC2	inactive: 1.5%
Cc1ccc(CN2CCN(Cc3ccccc3F)CC2)cc1	inactive: -1.12%
CCC(=O)Nc1cc(C(=O)N2CCC3(CC2)OCCO3)ccc1S(=O)(=O)c1ccc(C)cc1	inactive: -33.3%
O=c1[nH]c(=O)n(CCc2ccccc2)c(O)c1C=NC1CC1	inactive: 11.5%
CCOC(=O)c1cc(CC)sc1/N=C/C1C(=O)NC(=S)NC1=O	inactive: 12.3%
Nc1ccccc1C(=O)OCC(=O)N1CCc2ccccc21	inactive: 31%
CCCC(C)n1[nH]c(=O)c2c1NC(=O)CSC2c1ccccc1 (centres undefined)	inactive: 13.2%
O=c1[nH]c(=O)n(Cc2ccc(F)cc2)c(O)c1C=Nc1ccc(Cl)cc1	inactive: -3.18%
CN1C(=O)C(=Cc2cn(CC(=O)N3CCCC3)c3ccccc23)C(=O)N(C)C1=O	inactive: 5.95%
CC(C)(C)C(=O)O[C@H]1CC[C@@]2(C)C(=CC(=O)C3C2CC[C@]2(C)C(=O)[C@H](O)CC32)C1 (some centres undefined)	inactive: 23.1%
CCOc1ccc(N2C(=O)NC(=O)/C(=C\c3ccc(N4CCOCC4)cc3C)C2=O)cc1	inactive: -6.56%
CCC(C)n1c(O)c(C=Nc2cccc(C(F)(F)F)c2)c(=O)[nH]c1=S (centres undefined)	inactive: 12.7%
COc1ccc(-[n+]2c(-c3ccccc3)cc(-c3ccc(C)cc3)cc2-c2ccccc2)cc1	inactive: -5.24%

SMILES	growth rescue (activation)
Cc1ccccc1-n1c(C)nc2ccccc2c1=O	inactive: 5.29%
N#CC1=C(N)Oc2c(c(=O)oc3ccccc23)C1c1ccc(OC(=O)N2CCOCC2)cc1 (centres undefined)	inactive: 28.2%
CC(C)(C)C(=O)O[C@H]1CC[C@@]2(C)C(=CC(=O)C3C2CC[C@]2(C)C(=O)CCC32)C1 (some centres undefined)	inactive: 8.04%
C[C@]12CCC3C(CC[C@H]4C[C@H](O)CC[C@]34C)C1[C@@H](O)[C@@H](O)[C@@H]2O (some centres undefined)	inactive: -0.474%
CCCCCCn1c(O)c(C=NC2CCN(Cc3ccccc3)CC2)c(=O)[nH]c1=O	inactive: 2.6%
NCCCN1CCN(c2ccccc2)CC1	inactive: 24.1%
Cc1nn(Cc2ccccc2Cl)c(C)c1C(=O)OCC(=O)N1CC(C)OC(C)C1 (centres undefined)	inactive: 8.19%
Cc1ccsc1C(=O)C1CCCN(Cc2c(C)nn(C(C)C)c2C)C1 (centres undefined)	inactive: 3.88%
CCOC(=O)C1=Nc2ccccc2/C1=C\c1c(O)n(C)c(=O)n(C)c1=O	inactive: -26.5%
O=C(CN1CCCC1=O)NCCc1ccccc1	inactive: -13.6%
O=CNc1ccc(OP(=O)(Oc2ccccc2)Oc2ccccc2)cc1	inactive: -2.25%
O=C(NCC(c1cccnc1)N1CCN(c2ccccc2F)CC1)Oc1ccccc1 (centres undefined)	inactive: 9.43%
COc1ccc2[nH]cc(CCN=C(N)N)c2c1	inactive: 4.45%
CC1CN(O)C2CCc3nonc3C12O (centres undefined)	inactive: 1.68%
CCN1CCN(c2ccc([N+](=O)[O-])cc2C(=O)OC)CC1	inactive: -14.7%
COc1ccc(CN2C(=O)NC(=O)/C(=C\c3ccco3)C2=O)cc1	inactive: -15.4%
c1cncc(CNCCc2c[nH]c3ccccc23)c1	inactive: 10.2%
CC1=CC(=O)C2=C(C)CC(O)C3C(C)C(=O)OC3C12 (centres undefined)	inactive: -22%
O=c1[nH]c(=O)n(CCC2=CCCCC2)c(O)c1C=NCCCn1ccnc1	inactive: -8.75%
O=c1[nH]c(=S)n(-c2ccc(Cl)cc2)c(O)c1/C=N/N1CCOCC1	inactive: -6.83%
C[C@]12CCC(=O)C=C1C=CC1C2CC[C@@]2(C)C1CC[C@@H]2O (some centres undefined)	inactive: 16.9%
